This passage reports binding signal results from publication PMC5836133.

The other results are listed elsewhere or left out. At the low end of the ranking, values are background and their order means little.

The assay concerns T1, GST-NbGlk1(82-244).
T1 sequence: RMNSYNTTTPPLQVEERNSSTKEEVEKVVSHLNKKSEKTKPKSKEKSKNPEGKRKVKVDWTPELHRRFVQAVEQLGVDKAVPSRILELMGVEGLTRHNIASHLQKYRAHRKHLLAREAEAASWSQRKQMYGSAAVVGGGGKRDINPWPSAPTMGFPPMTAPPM
As to the kind of experiment: protein-binding microarray.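 Note: rank-based score ranging −0.5 to +0.5 with E above 0.45 taken as significant binding.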 The settings on record: NbGlk1 is a Golden2-like transcription factor of Nicotiana benthamiana; high values mean tight binding; most listed sequences are background and not binding sites; double strand, one strand shown.
The sequence AATATTAA registered a binding signal of 0.269 E-score.

In turn, ATGCTGGA showed a binding signal of 0.00755 E-score. The value for ATTATCCA was 0.182 E-score; that for ATGCACGC was -0.127 E-score. AGATAGAA yielded a binding signal of 0.00709 E-score. In turn, AACTTACA returned a binding signal of -0.0234 E-score.

ACTTTCAA: the binding signal was -0.0734 E-score. The value for CACACGTG was -0.229 E-score. The value for ATCTCTGC was 0.311 E-score; that for ATAACGGG was -0.0173 E-score. Take ACGAAGGC: the binding signal is -0.199 E-score. The same measure for ACGATTCT: 0.362 E-score; for AGGCGATC: 0.317 E-score; for AGGAGGAG: -0.228 E-score. The value for AACACTCG was -0.0786 E-score; that for CACTTGAA was -0.0798 E-score. The value for AATCTTTA was 0.352 E-score; that for ACGCTGGC was 0.0255 E-score; that for ACGCAATC was 0.48 E-score. Consider ATCAATAA, for which the binding signal stood at 0.0962 E-score.

As for ACGGCCCG, the binding signal is -0.266 E-score. The sequence ATGGATAG came in with a binding signal of 0.101 E-score. The same measure for ACCTTGAA: -0.0681 E-score; for ATGACCGG: -0.00945 E-score.

The sequence AACAGCAA gave a binding signal of 0.00563 E-score. The value for ACATCTAT was 0.0249 E-score; that for ATGCAGCA was -0.212 E-score; that for CACTCGTC was -0.21 E-score. The same measure for CACTCTAC: -0.049 E-score; for ACTGAAGT: -0.186 E-score; for ATCTCGTC: 0.319 E-score. Sequence ATACCAAT gave a binding signal of 0.111 E-score.

As to ACCAACCG, the binding signal is -0.107 E-score. The value for AAGCCCTG was -0.28 E-score; that for AATACTGT was 0.0835 E-score. Sequence AGGTCAAA registered a binding signal of 0.0176 E-score. The value for AGGGTTCA was -0.199 E-score; that for ATAAACCA was 0.0151 E-score. In the case of ATAATGCC, the binding signal is 0.0577 E-score. The sequence ACCGGTAA gave a binding signal of 0.0911 E-score. Regarding CAAAAGCG, the binding signal is -0.0616 E-score. In turn, AATTGCAC yielded a binding signal of 0.123 E-score. The same measure for AATAGTGG: 0.0493 E-score. CAAAGCAG showed a binding signal of -0.00643 E-score. Turning to AAATCCAG, the binding signal amounted to 0.413 E-score.

In turn, AAGTCGAA had a binding signal of 0.00519 E-score. The value for ACGAATTA was 0.0986 E-score. As to AATCATAG, the binding signal came to 0.246 E-score. The value for ATTTGGCC was 0.00278 E-score. CAGAGTTC: the binding signal is -0.0546 E-score. The value for ACCGCCGG was -0.14 E-score; that for ACCGGGAA was -0.162 E-score; that for CAATACCA was 0.0755 E-score. As for AGAGATCT, the binding signal was found to be 0.411 E-score. The value for ATGCAGGA was 0.0934 E-score; that for AGGGGCGC was -0.203 E-score; that for ACCTCCCT was -0.255 E-score. The same measure for ACCTCCCA: -0.202 E-score. Consider CACCGTGA, for which the binding signal was -0.09 E-score.

On to ACTTAGAC, for which the binding signal is -0.0535 E-score. Sequence AACATAGG had a binding signal of 0.00817 E-score.

For ATTGGTGC, the binding signal was -0.0544 E-score. The same measure for AAATTGGA: 0.0115 E-score; for ATGGAGTC: -0.0927 E-score; for CACTTAGA: 0.0624 E-score. The same measure for AGAGCGCT: -0.104 E-score. The same measure for CACAACAG: -0.0412 E-score.

In turn, AGCGGCTC yielded a binding signal of -0.353 E-score. AGTCCAGA showed a binding signal of 0.0263 E-score. The value for AGCGAATA was 0.198 E-score. The value for ACCGACGA was -0.0924 E-score; that for CAATGTAG was -0.0395 E-score. Sequence AGACGCCG came in with a binding signal of -0.263 E-score. The value for ACGCCAAA was -0.0577 E-score; that for AGGGCAAT was 0.201 E-score.

The sequence AGATGAAG returned a binding signal of -0.123 E-score. Consider ACTAGGAC, for which the binding signal was -0.0719 E-score. The value for AAACTCGA was 0.0527 E-score; that for CAACGGCA was -0.136 E-score; that for ATAGCAGC was -0.15 E-score. The value for AAGTGAAA was 0.0784 E-score; that for ACGACGAG was -0.27 E-score; that for AAACCATG was -0.0579 E-score. Sequence ATCTTCTC returned a binding signal of 0.311 E-score. AGCTCTTG displayed a binding signal of -0.129 E-score. The value for CACGAAGA was 0.117 E-score; that for ATCATCAT was -0.0177 E-score. The value for ATGAGCCG was -0.245 E-score; that for AGTCACTG was -0.163 E-score. The value for CACACGTA was 0.0494 E-score; that for ATGGCGTC was -0.275 E-score; that for ATGTTACG was 0.0238 E-score. In turn, CAGACGGA showed a binding signal of 0.0222 E-score. For ACGACTTA, the binding signal was -0.0238 E-score. In turn, ATTGACCA displayed a binding signal of -0.0678 E-score. The sequence AGACTCCC gave a binding signal of -0.266 E-score.

Regarding ATTACCCG, the binding signal turned out to be 0.13 E-score. The same measure for ACCTCTTG: -0.205 E-score; for ACTGCCCG: -0.223 E-score. As for ATGTACAA, the binding signal was found to be 0.00403 E-score. ATTAGTAC gave a binding signal of 0.072 E-score. The sequence AAATAATG gave a binding signal of 0.13 E-score. AGTCGCAA displayed a binding signal of 0.192 E-score. ACACAAGT: the binding signal was -0.00427 E-score. The same measure for AAGCGAAA: 0.0889 E-score; for ACGTTGAG: -0.0847 E-score; for AGTTTTGC: 0.0151 E-score. The value for ATGCTACG was -0.0277 E-score; that for ACCATGAT was 0.12 E-score. For the sequence AAACCCAT, the binding signal is -0.245 E-score. As for AACGTGTG, the binding signal is -0.0474 E-score. The sequence ACCCTTTC displayed a binding signal of -0.338 E-score.

AAATTTGC: the binding signal came to 0.224 E-score.

AGGCCGAC displayed a binding signal of -0.245 E-score.

For ACTGCTTC, the binding signal was -0.156 E-score. The value for AGAGGGAG was -0.168 E-score; that for AGCCGTAC was -0.0873 E-score. The same measure for AGCACACG: -0.219 E-score; for ATTAGTTG: 0.12 E-score. The value for AGCCATTA was -0.123 E-score; that for ACAACGTC was -0.115 E-score; that for ATTGGATA was 0.318 E-score. Turning to ACGAATAG, the binding signal is -0.0329 E-score.

AGACAGAC displayed a binding signal of -0.0362 E-score. The same measure for AGTAGATC: 0.172 E-score. The same measure for AAGGGCGG: -0.0927 E-score. For the sequence AAGCTATT, the binding signal was 0.0015 E-score.

The sequence AGACAACC registered a binding signal of -0.222 E-score. The value for AGATGGAT was 0.132 E-score. Consider ATCAAAGC, for which the binding signal was 0.153 E-score. AAGGCCAA returned a binding signal of -0.139 E-score. In the case of AACCACTA, the binding signal was -0.106 E-score. Sequence AGAGTCAA registered a binding signal of -0.147 E-score.

As for AAGGGTCA, the binding signal is -0.151 E-score. Sequence AAGCCCTC registered a binding signal of -0.236 E-score. With ATTGCGTG, the binding signal is 0.388 E-score.

The sequence AAGCGACA showed a binding signal of -0.0121 E-score. The value for ACGGCAGC was -0.237 E-score; that for AGGTCCTC was -0.236 E-score; that for ATACTTCA was 0.0306 E-score. As to AGGGCACC, the binding signal was -0.343 E-score. The same measure for AAAACTAT: 0.123 E-score; for AGTGTTTC: 0.0393 E-score. The sequence ATAAGTTA showed a binding signal of 0.0783 E-score. Sequence AAAGGCAC showed a binding signal of -0.303 E-score. ACTGACTG registered a binding signal of -0.167 E-score. On to AACATGCC, for which the binding signal is -0.0403 E-score. The value for ATCAACAT was 0.0728 E-score. The same measure for ACCGAACA: -0.18 E-score. The same measure for AATAAAGC: 0.0797 E-score; for ACGGACAA: 0.045 E-score; for CAGAACGC: -0.134 E-score.

AAGTACCG displayed a binding signal of -0.167 E-score. Sequence ACCTACCA had a binding signal of -0.0829 E-score. The same measure for ACAGGCCC: -0.135 E-score; for CAGCAGAC: -0.223 E-score. The value for ACTCCACG was -0.136 E-score; that for AAATGTGT was -0.0339 E-score; that for ACGCCACG was -0.132 E-score.

With AGGAACAT, the binding signal is -0.0117 E-score. Consider ACGTTCTG, for which the binding signal is -0.0995 E-score. For the sequence AGTCGACG, the binding signal is -0.152 E-score.

As for AGACCCTG, the binding signal is -0.207 E-score.

The sequence ACTCGGGA displayed a binding signal of -0.0561 E-score. The same measure for AAGCGGTC: -0.171 E-score; for ACGGGCTA: -0.0241 E-score; for ATGATGGC: -0.103 E-score. In turn, AAGTAAAT had a binding signal of 0.144 E-score. As for ATAGCATG, the binding signal is -0.085 E-score.

AGCGCCCG registered a binding signal of -0.335 E-score. CAAGCTAG came in with a binding signal of -0.134 E-score. The same measure for ACTACGTG: -0.0954 E-score; for ACATTTCT: -0.0127 E-score; for AGCTACCC: -0.134 E-score.

AAAACCCA displayed a binding signal of -0.0596 E-score.

On to CAACTAAC, for which the binding signal amounted to 0.0598 E-score.

ATAGGTCG displayed a binding signal of -0.218 E-score. The same measure for CACTTGGC: -0.116 E-score; for AATTCAAA: 0.106 E-score. The value for ACTCACGA was -0.0783 E-score; that for AAGCACTT was -0.102 E-score; that for AATACCAA was 0.00993 E-score. The value for ATCGTATG was 0.131 E-score.

CAGCAACA came in with a binding signal of -0.116 E-score. For ACTGAAGG, the binding signal is -0.118 E-score. The value for AACGACCC was -0.159 E-score; that for AGCGGACA was -0.229 E-score.

ACCACTCG gave a binding signal of 0.0355 E-score. The same measure for AGGCTGTA: -0.141 E-score. The same measure for CACATATG: 0.0704 E-score. ACCGTTGA: the binding signal was -0.0958 E-score. Sequence ACATGGTG came in with a binding signal of -0.118 E-score. The same measure for AAGAGATC: 0.377 E-score; for CACGCTGG: -0.133 E-score; for ACCGGGGA: -0.0349 E-score. AGACTGAC yielded a binding signal of -0.239 E-score.

Regarding AGACTGGC, the binding signal was -0.066 E-score. The value for CAGAGTGC was -0.114 E-score. Consider AGTGTGCG, for which the binding signal was -0.112 E-score. The value for ATGGGGCA was -0.055 E-score. Turning to AACCACTG, the binding signal is -0.0683 E-score. The value for ACCTATTA was 0.00658 E-score; that for ATTGCTGA was 0.15 E-score. Take AGGGTCAT: the binding signal was -0.253 E-score. The same measure for AATAGACT: -0.0644 E-score; for ATCGATAC: 0.245 E-score. The same measure for ACTTGCAA: -0.0565 E-score; for ACTTTACG: 0.154 E-score. The value for AGTTTTCA was -0.00138 E-score; that for AGCAATCA was 0.321 E-score. ATCCCTTC gave a binding signal of 0.0627 E-score. The value for AATTCGCG was 0.178 E-score; that for ACGGCAAA was 0.0563 E-score; that for ATGGTGTC was -0.082 E-score.

Consider AAGTATTA, for which the binding signal was 0.0699 E-score. The same measure for ACGAGACT: -0.0699 E-score; for AGCTTACT: -0.14 E-score. The same measure for AAGCCGCC: -0.361 E-score; for AGCCAGCA: -0.209 E-score.
